Assay: soluble fraction after stress (log2 fold change); higher = more stays soluble; pooled small domains, quantitative proteomics
Conditions: stress: 50 degC
Summary of the method: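 Each library was heated to 50°C as a stress step. The libraries, made up of small protein domains, were pooled and analysed at high throughput by quantitative proteomics. The reported value is the base-two logarithm of the fold change in each protein's soluble amount after stress, taken as a measure of aggregation propensity. The higher the value, the more protein stays in solution.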

Row | Sequence | soluble fraction (log2)
1 | HMNNAVITINNLVKRFPVGGDFFTALKDIDLTLNKGEFTGLIGPSGSGKTTLLNIIGGLDSPTEGQVSV | 0.0153
2 | HMLSQEALEFVRSLVDRPMVIFTTAYSEYAVEGFKLDAVDYLLKPFSFADFSRSAGKANSLYELRHN | -0.596
3 | HMSDMGRDEAYEILGLARDSSEAEIREAHKKLMINNHPDHGGSAYLATKINRARDVLLDELNFF | 9.92e-05
4 | HMGPSEPVIVKWFNRLKGYGFVTRPDGEADIFVHMETVRRAGLAELMPGQTLHARITEGQKGPLVVALGE | -1.05
5 | HMETLAWADTAQNGLDRLVAAQPILVRISAAKRLRDAAEQIARSAGVATVEIEHVQHASDSLQFGDA | -0.12
6 | HMVSSEQHYTVLGITKQATDTEVKKAYRKMAVKYHPDKLQGVSEDIKKLSEEKFLKVKEAYEQIMKGR | 0.136
7 | HMKMVEGKVKWFNDSKGFGFIEQDGGKDVFVHHSAIQAEGFKSLAEGERVSFDVVAGPKGPAAANVRK | -0.223
8 | HMSDYYQDLGVERSATPEEIKRAYRRLARQLHPDVNPGAEAEEQFKTVSRAYEVLSDADKRRNYDLGVDP | 0.163
9 | HMQFGLDQVAHQRAHTLSGGMQRRLSIAMGLITNPKILFLDEPTVGLDVLARHELWHTLTALK | 0.0434
10 | HMDSLPEPIKRLLNVLGDKKLSAAEIMEQLGLSHRATFRKNYLNPALELGLIEMTIPDKPNSRNQKYIKKQ | -0.308
